Source: paper PMC9911399, “Two distinct binding modes provide the RNA-binding protein RbFox with extraordinary sequence specificity”
Where a chain is given by its changes, count along the chain named. The list shows a part of the results.

T1: RBFOX1 RRM RbFoxmut (Fox-RRM*) (Homo sapiens, UniProt Q9NWB1 109-208, R118D;E147R;N151S;E152T)
T1 sequence: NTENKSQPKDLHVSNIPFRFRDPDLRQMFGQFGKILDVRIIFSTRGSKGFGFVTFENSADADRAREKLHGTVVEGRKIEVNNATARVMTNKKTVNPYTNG

B1: CACAGCG (DNA:RNA)
RNA: GGGAGACCGGAAUUCAGAUUGUCCCACAGCGUUAAAUCCCGUCGUAGCCACCA
DNA 1: CAATCTGAATTCCGGTCTCCC
DNA 2: TGGTGGCTACGACGGGATT
B2: CUGCGCA (DNA:RNA)
RNA: B1 RNA with A26U, C27G, A28C, G31A
DNA 1: CAATCTGAATTCCGGTCTCCC
DNA 2: TGGTGGCTACGACGGGATT
B3: UCCCAUU (DNA:RNA)
RNA: B1 RNA with C25U, A26C, A28C, G29A, C30U, G31U
DNA 1: CAATCTGAATTCCGGTCTCCC
DNA 2: TGGTGGCTACGACGGGATT
B4: GCACGAU (DNA:RNA)
RNA: B1 RNA with C25G, A26C, C27A, A28C, C30A, G31U
DNA 1: CAATCTGAATTCCGGTCTCCC
DNA 2: TGGTGGCTACGACGGGATT
B5: GGGAGUC (DNA:RNA)
RNA: B1 RNA with C25G, A26G, C27G, C30U, G31C
DNA 1: CAATCTGAATTCCGGTCTCCC
DNA 2: TGGTGGCTACGACGGGATT
B6: UCCUUAU (DNA:RNA)
RNA: B1 RNA with C25U, A26C, A28U, G29U, C30A, G31U
DNA 1: CAATCTGAATTCCGGTCTCCC
DNA 2: TGGTGGCTACGACGGGATT
B7: AACGGAU (DNA:RNA)
RNA: B1 RNA with C25A, A28G, C30A, G31U
DNA 1: CAATCTGAATTCCGGTCTCCC
DNA 2: TGGTGGCTACGACGGGATT
B8: GUAGUGA (DNA:RNA)
RNA: GGGAGACCGGAAUUCAGAUUGUCCGUAGUGAUUAAAUCCCGUCGUAGCCACCA
DNA 1: CAATCTGAATTCCGGTCTCCC
DNA 2: TGGTGGCTACGACGGGATT
B9: UCCUAAA (DNA:RNA)
RNA: B1 RNA with C25U, A26C, A28U, G29A, C30A, G31A
DNA 1: CAATCTGAATTCCGGTCTCCC
DNA 2: TGGTGGCTACGACGGGATT
B10: AUUUAUG (DNA:RNA)
RNA: B1 RNA with C25A, A26U, C27U, A28U, G29A, C30U
DNA 1: CAATCTGAATTCCGGTCTCCC
DNA 2: TGGTGGCTACGACGGGATT
B11: AAACUCU (DNA:RNA)
RNA: B1 RNA with C25A, C27A, A28C, G29U, G31U
DNA 1: CAATCTGAATTCCGGTCTCCC
DNA 2: TGGTGGCTACGACGGGATT
B12: UGCGAUA (DNA:RNA)
RNA: B8 RNA with G25U, U26G, A27C, U29A, G30U
DNA 1: CAATCTGAATTCCGGTCTCCC
DNA 2: TGGTGGCTACGACGGGATT
B13: CCCUUCC (DNA:RNA)
RNA: B1 RNA with A26C, A28U, G29U, G31C
DNA 1: CAATCTGAATTCCGGTCTCCC
DNA 2: TGGTGGCTACGACGGGATT
B14: CCGGGAA (DNA:RNA)
RNA: B1 RNA with A26C, C27G, A28G, C30A, G31A
DNA 1: CAATCTGAATTCCGGTCTCCC
DNA 2: TGGTGGCTACGACGGGATT
B15: GGCGGCA (DNA:RNA)
RNA: B1 RNA with C25G, A26G, A28G, G31A
DNA 1: CAATCTGAATTCCGGTCTCCC
DNA 2: TGGTGGCTACGACGGGATT
B16: UGCGAUU (DNA:RNA)
RNA: B1 RNA with C25U, A26G, A28G, G29A, C30U, G31U
DNA 1: CAATCTGAATTCCGGTCTCCC
DNA 2: TGGTGGCTACGACGGGATT
B17: UUAUACU (DNA:RNA)
RNA: B8 RNA with G25U, G28U, U29A, G30C, A31U
DNA 1: CAATCTGAATTCCGGTCTCCC
DNA 2: TGGTGGCTACGACGGGATT
B18: UUCUUCA (DNA:RNA)
RNA: B8 RNA with G25U, A27C, G28U, G30C
DNA 1: CAATCTGAATTCCGGTCTCCC
DNA 2: TGGTGGCTACGACGGGATT
B19: GGGGCUC (DNA:RNA)
RNA: B8 RNA with U26G, A27G, U29C, G30U, A31C
DNA 1: CAATCTGAATTCCGGTCTCCC
DNA 2: TGGTGGCTACGACGGGATT
B20: GGGGGUU (DNA:RNA)
RNA: B8 RNA with U26G, A27G, U29G, G30U, A31U
DNA 1: CAATCTGAATTCCGGTCTCCC
DNA 2: TGGTGGCTACGACGGGATT
B21: GUAAAGA (DNA:RNA)
RNA: B8 RNA with G28A, U29A
DNA 1: CAATCTGAATTCCGGTCTCCC
DNA 2: TGGTGGCTACGACGGGATT
B22: GAGAGCA (DNA:RNA)
RNA: B1 RNA with C25G, C27G, G31A
DNA 1: CAATCTGAATTCCGGTCTCCC
DNA 2: TGGTGGCTACGACGGGATT
B23: CGUUGAU (DNA:RNA)
RNA: B1 RNA with A26G, C27U, A28U, C30A, G31U
DNA 1: CAATCTGAATTCCGGTCTCCC
DNA 2: TGGTGGCTACGACGGGATT
B24: GGAGGGC (DNA:RNA)
RNA: B8 RNA with U26G, U29G, A31C
DNA 1: CAATCTGAATTCCGGTCTCCC
DNA 2: TGGTGGCTACGACGGGATT
B25: CGACGCC (DNA:RNA)
RNA: B1 RNA with A26G, C27A, A28C, G31C
DNA 1: CAATCTGAATTCCGGTCTCCC
DNA 2: TGGTGGCTACGACGGGATT
B26: UAGGUAC (DNA:RNA)
RNA: B8 RNA with G25U, U26A, A27G, G30A, A31C
DNA 1: CAATCTGAATTCCGGTCTCCC
DNA 2: TGGTGGCTACGACGGGATT
B27: GACAGAG (DNA:RNA)
RNA: B1 RNA with C25G, C30A
DNA 1: CAATCTGAATTCCGGTCTCCC
DNA 2: TGGTGGCTACGACGGGATT
B28: CGUCUUG (DNA:RNA)
RNA: B1 RNA with A26G, C27U, A28C, G29U, C30U
DNA 1: CAATCTGAATTCCGGTCTCCC
DNA 2: TGGTGGCTACGACGGGATT
B29: ACAUGUG (DNA:RNA)
RNA: B1 RNA with C25A, A26C, C27A, A28U, C30U
DNA 1: CAATCTGAATTCCGGTCTCCC
DNA 2: TGGTGGCTACGACGGGATT
B30: ACGUCCA (DNA:RNA)
RNA: B1 RNA with C25A, A26C, C27G, A28U, G29C, G31A
DNA 1: CAATCTGAATTCCGGTCTCCC
DNA 2: TGGTGGCTACGACGGGATT
B31: GAGAUUC (DNA:RNA)
RNA: B1 RNA with C25G, C27G, G29U, C30U, G31C
DNA 1: CAATCTGAATTCCGGTCTCCC
DNA 2: TGGTGGCTACGACGGGATT

Biological target: T1, RBFOX1 RRM RbFoxmut (Fox-RRM*)
Assay: EMSA; HiTS-Eq, 1 nM pool, 10 min; buffer printed only for the single-RNA assays: 10 mM Tris pH 7.5, 150 mM NaCl, 3.4 mM EDTA, 0.001% NP-40, 30 C
Conditions: tags: His6 N-terminal (pET28a); label: 5' 32P
Procedure, shortened: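 Purified RbFox RRM, wild type or mutant, was incubated for 10 min in 50 µL with 1 nM of a 5′-radiolabelled RNA pool carrying 7 randomized nucleotides, whose flanks were annealed to DNA oligonucleotides, over a series of increasing protein concentrations. Unbound RNA was resolved on 8% native PAGE, cut out, reverse-transcribed, barcoded by PCR and sequenced on an Illumina HiSeq 2500. Relative association constants were derived from changes in read counts for each RNA species versus the control reaction and normalised to the cognate motif.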

Compared with B1, B2 is higher in binding signal: 0.108 KA relative to UGCAUGU for the first, 0.155 KA relative to UGCAUGU for the second.

Compared with B3, B4 is higher in binding signal: 0.0548 KA relative to UGCAUGU for the first, 0.164 KA relative to UGCAUGU for the second.

Compared with B5, B6 is lower in binding signal: 0.188 KA relative to UGCAUGU for the first, 0.128 KA relative to UGCAUGU for the second.

Compared with B7, B8 is higher in binding signal: 0.0829 KA relative to UGCAUGU for the first, 0.0964 KA relative to UGCAUGU for the second.

Compared with B9, B10 is higher in binding signal: 0.0858 KA relative to UGCAUGU for the first, 0.138 KA relative to UGCAUGU for the second.

First: B11
Second: B12
The binding signal of the first is lower: 0.0488 KA relative to UGCAUGU for the first, 0.129 KA relative to UGCAUGU for the second.

Compared with B13, B14 is higher in binding signal: 0.049 KA relative to UGCAUGU for the first, 0.142 KA relative to UGCAUGU for the second.

Compared with B15, B16 is lower in binding signal: 0.124 KA relative to UGCAUGU for the first, 0.0876 KA relative to UGCAUGU for the second.

First: B17
Second: B18
The binding signal of the first is lower: 0.11 KA relative to UGCAUGU for the first, 0.111 KA relative to UGCAUGU for the second.

Compared with B19, B20 is lower in binding signal: 0.122 KA relative to UGCAUGU for the first, 0.102 KA relative to UGCAUGU for the second.

Compared with B21, B22 is higher in binding signal: 0.064 KA relative to UGCAUGU for the first, 0.151 KA relative to UGCAUGU for the second.

First: B23
Second: B24
The binding signal of the first is higher: 0.108 KA relative to UGCAUGU for the first, 0.0724 KA relative to UGCAUGU for the second.

Compared with B25, B26 is lower in binding signal: 0.107 KA relative to UGCAUGU for the first, 0.0736 KA relative to UGCAUGU for the second.

Compared with B27, B28 is higher in binding signal: 0.07 KA relative to UGCAUGU for the first, 0.615 KA relative to UGCAUGU for the second.

First: B29
Second: B30
The binding signal of the first is higher: 0.155 KA relative to UGCAUGU for the first, 0.1 KA relative to UGCAUGU for the second.

For B31, the binding signal was 0.101 KA relative to UGCAUGU.
